# Measurements taken from article PMC4336329 (PLoS ONE, 2015).
# Among all 310,000 compounds or so, about 14,000 (4.5%) showed an effect of 50% or more. Effects have a minus sign here. Some of the results follow.
# Target: human ether-à-go-go-related gene (hERG) potassium channel (human, UniProt Q12809)
# Experiment: primary screen, population patch clamp on CHO cells stably expressing hERG
# 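Further: peak tail current of the secondary pulse compared with the same well before compound.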
# Chain of human ether-à-go-go-related gene (hERG) potassium channel (Q12809 whole entry, looked up): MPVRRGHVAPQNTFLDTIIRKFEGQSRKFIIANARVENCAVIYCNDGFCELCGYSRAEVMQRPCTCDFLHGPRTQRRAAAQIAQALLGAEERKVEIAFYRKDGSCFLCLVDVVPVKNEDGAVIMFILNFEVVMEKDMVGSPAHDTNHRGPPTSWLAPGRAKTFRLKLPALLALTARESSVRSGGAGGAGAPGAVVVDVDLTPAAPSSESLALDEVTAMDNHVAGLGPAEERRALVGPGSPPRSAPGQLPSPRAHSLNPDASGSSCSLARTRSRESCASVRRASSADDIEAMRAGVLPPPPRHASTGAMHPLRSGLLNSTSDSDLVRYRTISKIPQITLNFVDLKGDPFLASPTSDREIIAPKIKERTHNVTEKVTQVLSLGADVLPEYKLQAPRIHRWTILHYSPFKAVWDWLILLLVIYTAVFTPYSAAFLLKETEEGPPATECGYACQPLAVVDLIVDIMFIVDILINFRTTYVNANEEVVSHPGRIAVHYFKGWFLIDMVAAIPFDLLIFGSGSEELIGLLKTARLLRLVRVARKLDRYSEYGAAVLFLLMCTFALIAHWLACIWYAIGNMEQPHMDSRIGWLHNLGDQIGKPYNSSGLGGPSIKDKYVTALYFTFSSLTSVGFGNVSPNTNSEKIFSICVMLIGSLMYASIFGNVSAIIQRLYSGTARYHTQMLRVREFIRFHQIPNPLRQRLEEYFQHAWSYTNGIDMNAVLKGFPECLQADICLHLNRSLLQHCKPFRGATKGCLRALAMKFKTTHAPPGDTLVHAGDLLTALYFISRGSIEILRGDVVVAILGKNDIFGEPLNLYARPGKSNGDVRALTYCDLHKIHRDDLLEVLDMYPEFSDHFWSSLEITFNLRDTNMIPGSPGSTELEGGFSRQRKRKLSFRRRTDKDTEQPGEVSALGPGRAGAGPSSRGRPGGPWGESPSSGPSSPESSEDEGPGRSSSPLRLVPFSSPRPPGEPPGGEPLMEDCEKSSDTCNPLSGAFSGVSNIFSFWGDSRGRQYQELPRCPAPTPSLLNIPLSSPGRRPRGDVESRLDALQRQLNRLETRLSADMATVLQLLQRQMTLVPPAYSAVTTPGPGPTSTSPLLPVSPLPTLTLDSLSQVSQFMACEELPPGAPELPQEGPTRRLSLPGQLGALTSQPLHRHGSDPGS
row,SMILES,"hERG current change (%, negative = inhibition) at 10uM [%]"
1,CC(C)(C)OC(=O)N[C@@H](C(=O)OC(C)(C)C)c1ccc2ccccc2c1,6.86
2,CC1(C)NC(=O)N(CC(=O)OCC(=O)Nc2cc(S(=O)(=O)N3CCCCC3)ccc2Cl)C1=O,-7.39
3,O=C(COc1ccc(Cl)cc1)N1CCN(c2ccc([N+](=O)[O-])c(N3CCOCC3)c2)CC1,-71.5
4,COc1ccc(OC)c(C(c2nnnn2C2CCCC2)N2CCN(c3ccccc3F)CC2)c1.Cl (stereo not shown),-10.9
5,CNC(=S)N/N=C/c1cn(CCOc2ccccc2OC)c2ccccc12,-2.61
6,O=C(/C=C/NCc1cccnc1)c1ccc(-c2ccccc2)cc1,2.96
7,Brc1ccc(CSc2ncn[nH]2)cc1,18.6
8,CCOC(=O)/C=C1\SCC(=O)N1CC(=O)NC(C)c1ccc(F)cc1 (stereo not shown),-19.3
9,CC(=O)OC1=Cc2c(ccc3ccc(=O)oc23)OC1(C)C,3.94
10,O=C(Nc1ccc2oc(-c3cccnc3)nc2c1)c1ccco1,-33.2
11,COC(=O)C1=C(C)N(CC2CCCO2)C(=O)/C1=C\c1ccc(O)cc1 (stereo not shown),4.33
12,CCC(CO)NCc1ccc(Br)cc1.Cl (stereo not shown),-2.19
13,COc1ccc(C(C)=O)cc1COC(=O)c1cccnc1Cl,8.32
14,Cc1ccc(-n2c(C)nc3cc(Cl)ccc3c2=O)nc1,15.2
15,COc1ccc2c(Cl)c(C(=O)NC3CCS(=O)(=O)C3)sc2c1 (stereo not shown),-4.73
16,COc1ccc(/C=C2\SC(N)=NC2=O)cc1,13.9
17,CCc1ccc(/C=C2\SC(N3CCOCC3)=NC2=O)cc1,-35.1
18,CCN(CC)C1=CC2=CC(=C(C#N)C#N)CCC2CC1 (stereo not shown),5.24
19,CCCCNS(=O)(=O)c1ccc2nc(SCC(=O)Nc3ccccc3)[nH]c2c1,-9.76
20,O=C(Cc1ccc(F)cc1)NC1CCCCCC1,19.6
21,CCOc1ccc(NC(=S)Nc2cc(-c3ccccc3)[nH]n2)cc1,12.1
22,O=C(COC(=O)c1ccc(Sc2ccccc2)c([N+](=O)[O-])c1)NC1CCS(=O)(=O)C1 (stereo not shown),-83.3

row,SMILES,"hERG current change (%, negative = inhibition) at 10uM [%]"
1,O=C(O)c1ccc(Cn2cnc3sc4c(c3c2=O)CCCC4)cc1,18.2
2,Brc1ccc(NC2=Nc3ccccc3CC2)cc1,-8.56
3,Cn1c(SCC(=O)Nc2ccccc2F)nnc1-c1ccc(S(=O)(=O)N2CCOCC2)cc1,-29
4,Cc1cc(C(=O)COC(=O)C2COc3ccccc3O2)c(C)n1CC1CCCO1 (stereo not shown),-9.57
5,Cc1cccc(NC(=O)C(C)SCc2nc3sc(C)c(C)c3c(=O)[nH]2)n1 (stereo not shown),3.58
6,CCNC(=O)/N=C1/NC(=O)C(C(C)C)O1 (stereo not shown),24.7
7,CCOC(=O)c1c(C)[nH]c(C(=O)CN2C(=O)NC3(CCCC3)C2=O)c1C,-1.87
8,COc1ccc(C(=O)NCc2nnc(SCC(=O)Nc3ccccc3OC)n2C)cc1,0.403
9,CCOC(=O)c1cnc(N2CCOCC2)[nH]c1=O,26.2
10,O=C(Nc1cccc(Cl)c1)N1CCC(CO)(CCOc2ccccc2)CC1,-58.6
11,COc1ccc(N2CCN(C(=O)CCCn3nnnc3CN3CCOCC3)C(C)C2)cc1 (stereo not shown),-2.99
12,CCOc1ccc(S(=O)(=O)N2CCCCC2)cc1NC(=O)CSCc1c(C)noc1C,-39.5
13,CC1=C(C(=O)Nc2cc(-c3cccc(F)c3)[nH]n2)C2(CCCCC2)OC1=O,4.51
14,CC(C)(C)C(=O)C(Cc1ccccc1Cl)n1cncn1 (stereo not shown),1.87
15,COc1ccc(NC(=O)/C=C/c2cc(OC)c(OC)c(OC)c2)cn1,6.02
16,CCCCCCCCC(NC(=O)c1ccc(C#N)cc1)C(=O)NCCC (stereo not shown),-6.04
17,Cc1cccc(C)c1N1CCN(C(=O)N2CCOCC2)CC1,-3.47
18,CCOc1cc2[nH]c(=O)n(CCC(=O)NCc3ccc(OC)cc3)c(=O)c2cc1OCC,5.71
19,COC(=O)c1ccc(N=C2SCC(=O)N2C)cc1,14.3
20,CCN(CC(=O)NCc1ccccn1)S(=O)(=O)c1ccc(Cl)cc1,-4.93
21,CC(=O)Nc1ccccc1C(=O)C(=O)Nc1ccccc1,9.65
